The results in this text go back to paper PMC4336329 (PLoS ONE, 2015).

Molecules are shown by their SMILES. About 2,200 (0.71%) of roughly 310,000 compounds showed an effect of 50% or more. The effect is printed as a negative number. This is one part of the list.

For this test, the target named is human ether-à-go-go-related gene (hERG) potassium channel (human, UniProt Q12809). The test is described as follows: primary screen, population patch clamp on CHO cells stably expressing hERG.
Chain of human ether-à-go-go-related gene (hERG) potassium channel (Q12809 whole entry, looked up): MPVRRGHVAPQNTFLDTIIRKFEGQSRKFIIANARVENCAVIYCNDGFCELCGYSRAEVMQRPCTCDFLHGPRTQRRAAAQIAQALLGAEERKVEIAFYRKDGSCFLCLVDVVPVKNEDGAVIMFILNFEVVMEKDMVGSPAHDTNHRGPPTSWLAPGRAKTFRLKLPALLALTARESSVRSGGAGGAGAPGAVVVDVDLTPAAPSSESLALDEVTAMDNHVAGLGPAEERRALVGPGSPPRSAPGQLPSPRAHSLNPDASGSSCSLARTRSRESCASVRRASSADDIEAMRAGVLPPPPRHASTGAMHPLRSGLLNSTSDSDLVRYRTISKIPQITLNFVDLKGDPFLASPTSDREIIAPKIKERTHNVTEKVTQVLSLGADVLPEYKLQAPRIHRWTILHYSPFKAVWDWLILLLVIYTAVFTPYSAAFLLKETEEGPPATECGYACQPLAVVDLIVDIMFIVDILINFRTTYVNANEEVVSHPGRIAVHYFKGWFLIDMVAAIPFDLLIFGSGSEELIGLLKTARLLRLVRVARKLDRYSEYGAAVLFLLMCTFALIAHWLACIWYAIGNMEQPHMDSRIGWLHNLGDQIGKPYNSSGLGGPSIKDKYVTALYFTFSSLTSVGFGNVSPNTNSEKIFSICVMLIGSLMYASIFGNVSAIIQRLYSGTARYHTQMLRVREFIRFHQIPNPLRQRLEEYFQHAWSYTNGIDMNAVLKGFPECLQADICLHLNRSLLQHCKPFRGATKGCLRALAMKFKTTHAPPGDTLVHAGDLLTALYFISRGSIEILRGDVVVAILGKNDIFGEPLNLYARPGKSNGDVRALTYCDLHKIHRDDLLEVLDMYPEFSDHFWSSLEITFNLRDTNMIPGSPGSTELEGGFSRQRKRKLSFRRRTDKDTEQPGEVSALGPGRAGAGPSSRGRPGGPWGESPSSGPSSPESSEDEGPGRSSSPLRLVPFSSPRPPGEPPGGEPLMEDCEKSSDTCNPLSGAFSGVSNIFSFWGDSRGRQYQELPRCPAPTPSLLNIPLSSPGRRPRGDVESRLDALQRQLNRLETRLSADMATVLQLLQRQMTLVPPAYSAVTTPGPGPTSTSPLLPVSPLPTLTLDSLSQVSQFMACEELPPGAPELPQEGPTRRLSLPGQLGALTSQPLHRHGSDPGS
As to `O=C(NCc1ccccn1)c1ccc2c(=O)n3nc(Nc4ccccc4)sc3nc2c1`, the “hERG current change (%, negative = inhibition) at 1uM” value was determined as 16.6%. Consider `N#CC1=C(N)NC(SCC(=O)c2ccc(Br)cc2)=C(C#N)C12CCCCC2`, for which the “hERG current change (%, negative = inhibition) at 1uM” value is reported as 7.45%. The result for `Cc1ccccc1S(=O)(=O)Cc1ccc(C(=O)NCc2cccs2)o1` reads 1.46%; that for `Cc1ccc(S(=O)(=O)N2CCCCC2)cc1C(=O)N1CCN(c2ccccn2)CC1`, 5.78%; that for `Cc1nccn1CC(=O)N/N=C/c1cc(Br)cs1`, 12%. The result for `Cc1cccc(N=Nc2ccc(O)c3ncccc23)c1` reads 5.68%; that for `Cc1ccc(-c2ccc(CCC(=O)O)n2-c2cccc(C(=O)O)c2)cc1`, 13.3%; that for `CCc1nnc(NC(=O)CSc2nnc3nc(C)cc(C)n23)s1`, 9.21%. The result for `COc1ccc(/C=N/NC(=O)CNC(=O)c2ccc3c(c2)OCCO3)cc1OC` reads 6.35%.

On to `COc1ccc2nc(NC(=S)NC(=O)c3ccco3)sc2c1`, for which the “hERG current change (%, negative = inhibition) at 1uM” value is given as 11.4%. Under `CCOc1ccc(NC(=O)CN(C)CC(=O)NC(C)c2ccccc2)cc1OCC` (stereo not drawn) stands -3.28%; under `Cc1nc(NC(=O)CSc2nnnn2C)sc1C`, 12.3%.

As to `Cc1ccc(NC(=O)Cn2cnc3c(cnn3C(C)(C)C)c2=O)cc1`, the “hERG current change (%, negative = inhibition) at 1uM” value amounted to 8.41%. Under `CCOCC(=O)Nc1ccc([N+](=O)[O-])cc1OC` stands 3.45%; under `O=C(COc1ccc([N+](=O)[O-])cc1)Nc1nnc(-c2cccnc2)s1`, 4.14%; under `O=C(CCc1c[nH]c2ccccc12)NCCc1ccc(O)cc1`, 6.51%. Under `Cc1cccc(N2CCN(C(=O)c3ccc(CS(=O)Cc4cccc(Cl)c4)o3)CC2)c1C` (stereo not drawn) stands 11.4%; under `CCOS(C)(=O)=O`, 14.8%; under `Clc1ccc(CNc2cnccn2)cc1Cl`, 13.5%.

On to `COc1ccc(OC)c(Cc2nnc(CCC(=O)NC(C3CC3)C3CC3)o2)c1`, for which the “hERG current change (%, negative = inhibition) at 1uM” value amounted to 10%. Consider `CCN(CC)C(=O)c1sc2c(c1C)c(=O)n(-c1ccc(OC)cc1OC)c(=O)n2CC(=O)c1ccccc1`, for which the “hERG current change (%, negative = inhibition) at 1uM” value was found to be 4%. Under `COC(=O)c1ccc(N2CCN(C)CC2)c(NC(=O)c2ccc(Br)o2)c1` stands -9.41%. Under `COCCNC(=S)N=Nc1c(O)[nH]c2c(C)cc(C)cc12` stands 1.17%; under `NS(=O)(=O)c1ccc(CNC(=S)NCc2ccc(Cl)cc2)cc1`, -0.229%. Under `COc1ccc(CNS(=O)(=O)c2c(C(=O)N3CCCCC3)c(C)n(C)c2C)cc1` stands 14%; under `NS(=O)(=O)c1ccc(NC(=O)C(Sc2ccccc2)c2ccccc2)cc1` (stereo not drawn), 11.4%. In the case of `Cc1ccccc1C(=O)N1CCC(C(=O)Nc2ccc(S(=O)(=O)N(C)C(C)C)cc2)CC1`, the “hERG current change (%, negative = inhibition) at 1uM” value is on record as 4.71%. Under `O=C(Nc1cccc(Cl)c1)N1CCc2ccccc2C1` stands 10.1%; under `Cc1ccc2nc(NCc3ccccc3)c(C=O)c(=O)n2c1`, 1.77%. Under `CCC(Sc1nc2ccccc2[nH]1)C(=O)Nc1ccc(NC(C)=O)cc1` (stereo not drawn) stands 5.01%. Under `CC(c1ccccc1)N1CC(C(=O)Nc2nccs2)CC1=O` (stereo not drawn) stands -2.76%. With `Cc1cc(/C=N/n2cnnc2)c(C)n1-c1ccc(OCc2ccc(Cl)cc2)cc1`, the “hERG current change (%, negative = inhibition) at 1uM” value is listed as 7.74%. The result for `O=C(NCCc1ccncc1)c1ccc2nc(Cc3cccc(Cl)c3)oc2c1` reads 8.95%; that for `COc1ccc(NC(=O)NCCCCc2ccccc2)cc1OC`, 8.32%; that for `CC1=CC2=NC(=O)/C(=C\c3cc(C)n(-c4ccc(F)cc4)c3C)C(=N)N2O1`, 14.4%. Under `O=C1NC(=O)c2cc(NC(=O)c3cccc4ccccc34)ccc21` stands 10%. Regarding `Cc1ccc(C(=O)NCCCN2CCN(CCCNC(=O)c3ccc(C)cc3)CC2)cc1`, the “hERG current change (%, negative = inhibition) at 1uM” value is -36.5%.

`CSC1=NC(C(Cl)(Cl)Cl)N=C(c2ccc(C)cc2)N1.Cl` (stereo not drawn): the “hERG current change (%, negative = inhibition) at 1uM” value was determined as 10.3%. Under `O=C(Nc1ncn[nH]1)c1ccccc1O` stands 4.56%; under `COc1ccc(-c2nnc(NC(=O)c3ccco3)s2)cc1`, 16.6%. The result for `COc1ccc(C(=O)Nc2cnc3ccccn3c2=O)cc1` reads 9.6%; that for `N#Cc1nc(Cc2ccccc2)oc1N1CCC(Cc2ccccc2)CC1`, 18.5%.

As for `COc1ccc(N2CCN(C(=O)CCN3C(=O)c4ccccc4S3(=O)=O)CC2)cc1.Cl`, the “hERG current change (%, negative = inhibition) at 1uM” value is -2.05%. The result for `O=C(NCc1ccco1)c1ccc(CNc2c(N3CCCCC3)c(=O)c2=O)cc1` reads 7.74%.

As to `O=[N+]([O-])c1cccc(-c2nc3ccccc3s/c2=N/O)c1`, the “hERG current change (%, negative = inhibition) at 1uM” value is listed as 4.64%.
